Measured values: the supplement of paper PMC10338343
± gives the standard deviation. Over roughly 3,700 sequences, “pre-steady-state target cleavage rate” has its median near 0.02; the highest 2% begin near 0.23. This is a selection; strong and weak results do not stand in their true shares.

What follows are sequences tested on MILI (PIWIL2) piRISC loaded with Kctd7 piRNA (26 nt) (assay: pre-steady-state target cleavage rate (min^-1); MIWI and MILI are mouse PIWI proteins and EfPiwi is from a freshwater sponge; tags in brackets are library labels; higher = faster piRNA-guided slicing of the target). Settings: guide: Kctd7 piRNA 5'p-UGUUAAUCUCUCAGAGAAGGUGACAG; auxiliary factor: 500 nM mouse GTSF1.
Outline: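 Cleave-'n-Seq: a transcribed, DNA-blocked target RNA library (0.1 nM) was mixed with 1 nM active affinity-purified piRISC carrying one synthetic guide, with or without 500 nM GTSF1 partner protein, in HEPES–potassium acetate buffer at 33 °C for 0–8 or 0–960 min. Uncleaved targets were sequenced and normalised to depth and to weakly complementary targets. Three trials were pooled, and k3 was capped at 0.0001 min^-1. The pre-steady-state cleavage rate came from a burst-and-steady-state fit.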

Going from UAGUGACAGUGGUUCUCUAAGAGAUUAACA to UAGUGAGUCACCAUCUCUGAGAGUUUAACA, the “pre-steady-state target cleavage rate” value rises from 0.00458 ± 0.0017 to 0.0921 ± 0.026.

UAGUGACACAGCUUCUCUGAGAGAUUAACA and UAGUGACAGUCCUUCUCUGAGAGAUUAACCA are within error of each other in “pre-steady-state target cleavage rate” value: 0.0705 ± 0.006 for the first, 0.0785 ± 0.0063 for the second.

“UAGUGACAGUGGAAGUCUGAGUCUAAUUGA [g10:g15:cont:t1A]” and UAGUGACAGUGCUUGUCUGAGACAUUAACA are within error of each other in “pre-steady-state target cleavage rate” value: 0.0124 ± 0.011 for the first, 0.00491 ± 0.0032 for the second.

Going from UAGUGACUCACCUUCUCAGAGAGAUUAUCA to UAGUGUGACACCUUCUCAGAGAGAUUAACA, the “pre-steady-state target cleavage rate” value rises from 0.0401 ± 0.0099 to 0.0933 ± 0.013.

First: UAGUGACAGUGGUUCUCUAGAGAUUAACA
Second: UAGUGACAGACCUUCUCUCAGAGAUUAUCA
The “pre-steady-state target cleavage rate” value of the first is lower: under 0.0001 for the first, 0.0125 ± 0.0038 for the second.

First: UAGUGACAGUGCUUGUCUGAGAGUUUAACA
Second: UAGUGACAGUCCUUCCCUGAGAGAUUAACA
The “pre-steady-state target cleavage rate” value of the first is lower: 0.00883 ± 0.0039 for the first, 0.0297 ± 0.0076 for the second.

Compared with UAGUGAGUCAGGUUCUCUGAGAGAUUAAGA, UAGUCUGUCACCCUUCUCUGAGAGAUUAACA is higher in “pre-steady-state target cleavage rate” value: 0.0194 ± 0.0076 for the first, 0.143 ± 0.014 for the second.

Compared with UAGUGACUCACGUUCACUGAGAGAUUAACA, UAGUGACACAGCUUCUCAGAGAGAUUAACA is lower in “pre-steady-state target cleavage rate” value: 0.175 ± 0.015 for the first, 0.0231 ± 0.0064 for the second.

First: UAGUGUGACACCUUCUCUGACAGAUUAACA
Second: UAGUCUGUCACCUUCUCUGAGAGAUAAACA
The “pre-steady-state target cleavage rate” value of the first is lower: 0.0418 ± 0.0083 for the first, 0.132 ± 0.022 for the second.

Going from UAGUGACUCACCUUCACUGAGAGAAUAACA to UAGUCUGUCACCUUUCUCUGAGAGAUUAACA, the “pre-steady-state target cleavage rate” value rises from 0.01 ± 0.0071 to 0.198 ± 0.015.

Compared with UAGUCUGUCACGCUUCUCUGAGAGAUUAACA, UAGUGACACACGUUCUCUGAGAGUUUAACA is lower in “pre-steady-state target cleavage rate” value: 0.102 ± 0.0067 for the first, 0.0435 ± 0.0063 for the second.

Compared with UAGUGACAGACCUUCUGUGUGAGAUUAACA, UAGUGACAGUGGCUCUCUGAGAGAUUAACA is lower in “pre-steady-state target cleavage rate” value: 0.022 ± 0.0066 for the first, 0.00558 ± 0.002 for the second.

Compared with UAGUGACAGACCUUCUCUGAGAGAUAUAACA, UAGUGACAGUGCUUCUCUGAGAGAUUAAACA is lower in “pre-steady-state target cleavage rate” value: 0.0752 ± 0.013 for the first, 0.0397 ± 0.0072 for the second.

UAGUGACAGUCCUGUCUCUGAGAGAUUAACA and UAGUGACAGUCGUUCUCUGAGAGAUUAACA are within error of each other in “pre-steady-state target cleavage rate” value: 0.0462 ± 0.0043 for the first, 0.0564 ± 0.0099 for the second.

Compared with UAGUCUGCACCUUCUCUGAGAGAUUAACA, UAGUGACACACCUUCUCUCAGUGAUUAACA is lower in “pre-steady-state target cleavage rate” value: 0.182 ± 0.012 for the first, 0.00607 ± 0.0036 for the second.

First: UAGUGACACACCUUCAGUGAGAGAUUAUGA
Second: UAGUGACUCACAUUCUCUGAGAGAUUAACA
The “pre-steady-state target cleavage rate” value of the first is lower: 0.0159 ± 0.0068 for the first, 0.0809 ± 0.0069 for the second.

Compared with UAGUGACAGUCGAUCUCUGAGAGAUUAACA, UAGUGUGUCACCUUCUCUGAGAGCUUAACA is higher in “pre-steady-state target cleavage rate” value: 0.00942 ± 0.0016 for the first, 0.173 ± 0.022 for the second.

Compared with UAGUGACUCACCUUCUCUCAGAGAUAAACA, UAGUCUGUCACCUUCUCUGAGAGGAUUAACA is higher in “pre-steady-state target cleavage rate” value: 0.0125 ± 0.0052 for the first, 0.174 ± 0.019 for the second.

UAGUCUGUCACCUUCUCUGAGAGAUAUACA and UAGUCUGUCACCUUCACAGAGAGAUUAACA are within error of each other in “pre-steady-state target cleavage rate” value: 0.0896 ± 0.023 for the first, 0.0761 ± 0.0083 for the second.

UAGUGUGUCACCUUCUGCUGAGAGAUUAACA and UAGUCUGUCACCUUCACUGAGAGUUUAACA are within error of each other in “pre-steady-state target cleavage rate” value: 0.127 ± 0.029 for the first, 0.141 ± 0.032 for the second.

Compared with UAGUGUGUCACCUUCAGUGAGAGAUUUUGA, UAGUGUGUCACCUACUCUGUGAGAUUAACA is higher in “pre-steady-state target cleavage rate” value: 0.0129 ± 0.0057 for the first, 0.0442 ± 0.0059 for the second.

Compared with UAGUGAGUCACCUUCUGUGAGAGAUUUUGA, UAGUGACAGUGCUUGUCUGAGAGAUUAACA is higher in “pre-steady-state target cleavage rate” value: 0.00801 ± 0.0063 for the first, 0.0469 ± 0.0093 for the second.

Going from UAGUGUGUCACCUUCUCUGAGAGAUUAUGA to UAGUGAGUCACCUUCUCUGAGUCUUUAACA, the “pre-steady-state target cleavage rate” value falls from 0.0812 ± 0.019 to 0.00784 ± 0.0059.

Compared with UAGUGUUUCACCUUCUCUGAGAGAUUAACA, UAGUGUGUGACCUUCUCUGAGAGAAUAACA is lower in “pre-steady-state target cleavage rate” value: 0.176 ± 0.015 for the first, 0.0833 ± 0.022 for the second.

Compared with UAGUGUGACACCUUCUCUGAGAGAUAAACA, UAGUGACAGUGCUUCUCUGAGAUGAUUAACA is lower in “pre-steady-state target cleavage rate” value: 0.124 ± 0.039 for the first, 0.0139 ± 0.0031 for the second.

UAGUGAGUCACCUUGUCUGAGAGAUAAACA and UAGUGACUCACCUUCUCUCACAGAUUAACA are within error of each other in “pre-steady-state target cleavage rate” value: 0.0145 ± 0.0061 for the first, 0.00531 ± 0.0044 for the second.

Going from UAGUGACUCACCAUCUCUGAGAGAUUAACA to UAGUGACAGUCGUUCUCUGAGAGAUUAUCA, the “pre-steady-state target cleavage rate” value falls from 0.112 ± 0.0064 to 0.00789 ± 0.0033.

Compared with UAGUCUGUCACGUUCUCUGAGAGAUUAACA, UAGUGACAGACCUUCUGAGAGAGAUUAACA is lower in “pre-steady-state target cleavage rate” value: 0.191 ± 0.0084 for the first, 0.0179 ± 0.0066 for the second.

First: UAGUGAGUGCACCUUCUCUGAGAGAUUAACA
Second: UAGUCUGUCACGUUCUCUGUGAGAUUAACA
The “pre-steady-state target cleavage rate” value of the first is higher: 0.163 ± 0.017 for the first, 0.034 ± 0.0027 for the second.

Going from UAGUCUGUCACCUUCUCACAGAGAUUAACA to UAGUGACACAUCUUCUCUGAGAGAUUAACA, the “pre-steady-state target cleavage rate” value rises from 0.034 ± 0.01 to 0.191 ± 0.0091.

Compared with UAGUGACUCACCUUCAUCUGAGAGAUUAACA, UAGUCUGACACCUUGUCUGAGAGAUUAACA is higher in “pre-steady-state target cleavage rate” value: 0.0219 ± 0.0075 for the first, 0.0846 ± 0.0099 for the second.

First: UAGUGACAGUCCUUCUCCGAGAGAUUAACA
Second: UAGUCUGUCACCUUCUCUCAGAGAUUAUCA
The “pre-steady-state target cleavage rate” value of the first is lower: 0.0139 ± 0.0061 for the first, 0.0396 ± 0.012 for the second.

First: UAGUGACAGUGGAAGAGUGAGAGUAUAACA
Second: UAGUGAGUCACGUUCUCUGACAGAUUAACA
The “pre-steady-state target cleavage rate” value of the first is lower: under 0.0001 for the first, 0.0319 ± 0.0055 for the second.

First: UAGUGACAGUGGAAGUCUGUGACAUUAACA
Second: UAGUCUGCUCACCUUCUCUGAGAGAUUAACA
The “pre-steady-state target cleavage rate” value of the first is lower: under 0.0001 for the first, 0.198 ± 0.011 for the second.

UAGUGUGUCACGAACUCUGAGAGAUAUUGA and UAGUGACAGUGGUUCUCUGAGUCUUUAACA cannot be ordered by “pre-steady-state target cleavage rate” value: under 0.0001 for the first, under 0.0001 for the second.

Going from UAGUGACAGUCCUCCUCUGAGAGAUUAACA to UAGUGACAGUCCUUCUCUGAGAGAAUAUGA, the “pre-steady-state target cleavage rate” value falls from 0.0807 ± 0.0063 to under 0.0001.
